According to PubChem BioAssay AID652104 (National Center for Advancing Translational Sciences (NCATS), 2013):
In all, about 410,000 compounds went through this assay and about 7,200 (1.8%) were called active. Inconclusive means that the source gave no clear call. Such entries were picked first, then a sample of the others. The call rests on the fitted dose curve; in most records, active means well fitted activation curve with a large enough effect; inconclusive means small, poorly fitted or top-dose-only effect, or another doubt; inactive means no such curve, though single readings can be large or run the other way. Where the call is inconclusive, the potency comes from a doubtful curve fit.

test: qHTS of TDP-43 Inhibitors; conditions: TDP-43 expressing yeast growth rescue, BacTiter-Glo, 24 h; growth rescue (activation): at 46.1 µM (top of the series) unless noted; further: nearly all actives have a fitted effect of over 50% in size; on growth rescue (activation): % of control where 0% means no effect
Method in brief: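 Cell-based yeast growth screen: TDP-43 expression induced in galactose, inoculum OD600=0.02 after raffinose pregrowth to mid-log. Read-out BacTiter-Glo luminescence at 24 hr, 30 deg C; inhibition of toxicity seen as signal increase.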
Potency means the concentration at half of the fitted maximal effect; tags describe the fitted curve by direction and shape.

Potency, inactive:
C=CS(=O)(=O)N(Cc1ccc(Cl)c(Cl)c1)C[C@@H](O)CO, CCC(C(=O)Nc1ccccc1)n1nc(-c2cc(C)ccc2C)ccc1=O (stereo unspecified), Cc1cc(C)nc(Nc2ccccc2Br)n1, Cc1ccc(NC(=O)C2CCN(c3nc4ccccc4nc3C(F)(F)F)CC2)cc1C, COc1ccc(-c2cc(C(F)(F)F)nc(SCCC(=O)Nc3ccc(O)cc3)n2)cc1, Cc1ccc2nc(NC(=O)CCn3cccc3)sc2c1, O=C(NCCc1ccccc1)c1cc(-c2cccc(Cl)c2)on1, COc1ccc(-c2cc(C3CCN(c4ccc(C(C)=O)cc4[N+](=O)[O-])CC3)[nH]n2)cc1, COc1ccc(OCC(O)CN2CCNCC2)cc1 (stereo unspecified)

Potency, inconclusive:
COc1cc(-c2ccccc2)[nH]c(=S)n1 4.47 µM [activator, full curve], Cc1ccc(S(=O)(=O)C2(C(=O)Nc3ccc(C(C)C)cc3)CC2)cc1 25.1 µM [activator, single point], COc1ccc(CCNC(=O)c2ccc(Cl)cc2Cl)cc1OC 35.5 µM [activator, partial curve], CCCOc1cccc(C(=O)NC(=S)Nc2ccccc2)c1 11.2 µM [activator, partial curve, poor fit], CCCCCc1ccc(-c2ccc(C(=O)Oc3ccc(C(=O)OC)cc3)cc2)nc1 35.5 µM [activator, single point], O=C(Cn1c(C(F)(F)F)nc2ccccc21)c1ccccc1 12.6 µM [activator, partial curve], O=C(Nc1ccnn1C1CCN(CC(O)CO)CC1)C1CCCC1 (stereo unspecified) 35.5 µM [activator, partial curve, poor fit], CCOc1ccc(-n2cc(-c3ccccc3)c3c(NCc4ccc(F)cc4)ncnc32)cc1 8.91 µM [activator, full curve, poor fit], CN(C)CCCN(C(=O)c1ccc(C(=O)c2ccccc2)cc1)c1nc2ccc(F)cc2s1 5.01 µM [activator, partial curve], Cc1ccc(S(=O)(=O)N(Cc2ccccc2)c2ccccn2)cc1[N+](=O)[O-] 35.5 µM [activator, single point], COc1ccc(-c2cc(C3CCN(c4ncccc4[N+](=O)[O-])CC3)[nH]n2)cc1 17.8 µM [activator, single point], O=C(Nc1ccccc1N1CCCCC1)c1ccc2nccnc2c1 35.5 µM [activator, single point], CCC(C(=O)O/N=C(\N)c1ccc(Cl)cc1)c1ccccc1 (stereo unspecified) 15.8 µM [activator, partial curve], N#CCC(CNc1ncc(C(F)(F)F)cc1Cl)OC(=O)c1ccc(Cl)cc1 (stereo unspecified) 20 µM [activator, single point], O=C(/C=C/c1ccc(F)cc1)N1CCc2ccccc2C1 8.91 µM [activator, partial curve], CN1CCN(S(=O)(=O)c2ccc(N3CCN(S(=O)(=O)/C=C/c4ccccc4)CC3)nc2)CC1 10 µM [activator, partial curve, poor fit], Cc1cc(S(=O)(=O)NCc2ccc3c(c2)OCO3)ccc1F 15.8 µM [activator, partial curve], CNC(=S)N/N=C(\C)c1ccc(C)c(C)c1 8.91 µM [activator, partial curve], COC(=O)N/N=C/c1cc(OC)c(O)c([N+](=O)[O-])c1 0.355 µM [activator, partial curve, poor fit], Nc1nc(Cl)cc(Sc2ccc(F)cc2)n1 10 µM [activator, partial curve], CC(C)(C)c1ccc(OCc2ccc(C(=O)Nc3cccnc3)o2)cc1 15.8 µM [activator, single point], O=C(Nc1cc(-c2nc3cc(Cl)ccc3o2)ccc1Cl)c1cccc2ccccc12 17.8 µM [activator, partial curve, poor fit], Cc1ccc(C(C2C(=O)CC(C)(C)CC2=O)C2C(=O)CC(C)(C)CC2=O)s1 31.6 µM [activator, single point], CCCCCCOc1ccc(C(CC(N)=O)C(=O)O)cc1 (stereo unspecified) 11.2 µM [activator, partial curve, poor fit], Cc1ccc(SCCCn2cnc3ccccc3c2=O)cc1 17.8 µM [activator, single point], CCOC(=O)c1cnn(-c2cc(C)cc(C)c2)c1N 35.5 µM [activator, partial curve], CCc1ccc(NC(=O)C2CC(=O)N(C(C)C)C2)cc1 (stereo unspecified) 3.98 µM [activator, full curve, poor fit], Cn1c2ccccc2c2cc([N+](=O)[O-])ccc21 1.26 µM [activator, full curve]

Potency, active:
COc1ccc2c(c1)CC=C1C2CCC2(C)C(=O)C(=NO)CC12 (stereo unspecified) 11.2 µM, CCc1ccc(Nc2ncnc3sc4c(c23)CCCC4)cc1 20 µM, COc1ccc(/C=C/c2nc(C#N)c(N3CCCCCC3)o2)cc1OC 17.8 µM, O=c1c(Sc2ccccc2)c(C(F)(F)F)[nH]n1-c1ccccc1 14.1 µM, CN(CC(=O)Nc1ccccc1Br)C(=O)CCSc1ccc(F)cc1 14.1 µM, O=S(=O)(Nc1ccc(F)cc1F)c1ccc(Br)s1 20 µM

Growth rescue (activation), inconclusive:
Cc1ccc(O)c(-c2cc(-c3ccccc3C)[nH]n2)c1 -91.1% [activator], N#C/C(=C\c1cccc(Oc2ccccc2)c1)C(=O)N1CCOCC1 -87.6% [activator]

Growth rescue (activation), inactive:
Fc1ccc([C@@H]2Nc3ccccc3[C@@H]3C=CC[C@@H]32)cc1 10.6% [at 9.22 µM]
